Results are given in words; binding and its absence hold for the method and conditions named. In cells and extracts the contact can be indirect. Some entries that bind do so weakly or less than the wild type. For part of these data: Tags and fused reporters may be left off the sequences shown.
Legend:
Assay in all cases: co-IP; HA-tagged mouse Zdhhc proteins transfected into 293T ZDHHC5 KO and control cells; lysis in 50 mM Tris-HCl pH 7.4, 150 mM NaCl, 2 mM EDTA, 1% DDM; anti-HA magnetic beads overnight at 4 °C; washes in TBS with 0.5% DDM; blots for endogenous GOLGA7 or ZDHHC9
[1] = target: HA-Zdhhc5^ANAA (mouse Zdhhc5 triple alanine mutant) (mouse) (UniProt Q8VDZ4)
[2] = target: HA-Zdhhc5^ANYA (mouse Zdhhc5 double mutant) (mouse) (UniProt Q8VDZ4)
[3] = target: HA-Zdhhc5^ANYR (mouse Zdhhc5 Arg144Ala) (mouse) (UniProt Q8VDZ4)
[4] = target: HA-Zdhhc5^ΔC-term (mouse Zdhhc5 lacking the C terminus) (mouse) (UniProt Q8VDZ4)
[5] = target: HA-Zdhhc5^ΔDHHC (mouse Zdhhc5 lacking the cytosolic loop with the DHHC active site and cysteine rich domain) (mouse) (UniProt Q8VDZ4)
[6] = target: HA-tagged mouse Zdhhc2 (mouse) (UniProt P59267)
[7] = target: T1, HA-tagged mouse Zdhhc21 (mouse) (UniProt Q9D270)
T1 sequence: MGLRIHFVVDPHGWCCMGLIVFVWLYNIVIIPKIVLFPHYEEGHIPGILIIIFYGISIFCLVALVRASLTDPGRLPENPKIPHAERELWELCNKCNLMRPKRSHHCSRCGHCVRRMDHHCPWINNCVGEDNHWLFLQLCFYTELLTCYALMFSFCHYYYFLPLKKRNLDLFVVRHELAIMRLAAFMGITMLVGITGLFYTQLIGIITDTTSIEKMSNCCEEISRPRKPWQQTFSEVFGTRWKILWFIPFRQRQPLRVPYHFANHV

The chains behind the UniProt entries cited, without tags or fusion partners. Where a name states a change or a piece, a line headed by the entry shows the natural chain unless it says otherwise. A line that says so, or that is headed by a name, gives the form on record, which may keep a tag or linker.
UniProt Q8VDZ4: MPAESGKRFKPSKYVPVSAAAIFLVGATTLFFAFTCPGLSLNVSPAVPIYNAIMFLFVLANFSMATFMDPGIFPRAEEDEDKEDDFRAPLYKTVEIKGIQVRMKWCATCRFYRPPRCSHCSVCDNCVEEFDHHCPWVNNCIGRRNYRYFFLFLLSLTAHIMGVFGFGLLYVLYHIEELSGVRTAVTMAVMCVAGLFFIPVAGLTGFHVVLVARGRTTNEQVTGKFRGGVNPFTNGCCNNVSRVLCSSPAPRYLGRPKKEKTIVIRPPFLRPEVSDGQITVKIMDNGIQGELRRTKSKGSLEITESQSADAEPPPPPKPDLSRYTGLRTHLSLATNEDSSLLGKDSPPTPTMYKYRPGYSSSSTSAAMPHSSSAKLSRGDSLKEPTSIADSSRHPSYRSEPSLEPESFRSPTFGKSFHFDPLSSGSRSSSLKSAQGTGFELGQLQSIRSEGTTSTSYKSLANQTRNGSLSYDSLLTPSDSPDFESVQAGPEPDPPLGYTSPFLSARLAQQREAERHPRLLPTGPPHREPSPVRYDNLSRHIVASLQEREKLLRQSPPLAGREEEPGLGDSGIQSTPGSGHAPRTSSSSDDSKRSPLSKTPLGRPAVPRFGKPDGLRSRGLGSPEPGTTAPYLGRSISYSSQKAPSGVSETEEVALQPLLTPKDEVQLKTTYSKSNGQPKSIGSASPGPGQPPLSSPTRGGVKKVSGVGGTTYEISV
HA-Zdhhc5^ANAA (mouse Zdhhc5 triple alanine mutant) (Q8VDZ4, form named): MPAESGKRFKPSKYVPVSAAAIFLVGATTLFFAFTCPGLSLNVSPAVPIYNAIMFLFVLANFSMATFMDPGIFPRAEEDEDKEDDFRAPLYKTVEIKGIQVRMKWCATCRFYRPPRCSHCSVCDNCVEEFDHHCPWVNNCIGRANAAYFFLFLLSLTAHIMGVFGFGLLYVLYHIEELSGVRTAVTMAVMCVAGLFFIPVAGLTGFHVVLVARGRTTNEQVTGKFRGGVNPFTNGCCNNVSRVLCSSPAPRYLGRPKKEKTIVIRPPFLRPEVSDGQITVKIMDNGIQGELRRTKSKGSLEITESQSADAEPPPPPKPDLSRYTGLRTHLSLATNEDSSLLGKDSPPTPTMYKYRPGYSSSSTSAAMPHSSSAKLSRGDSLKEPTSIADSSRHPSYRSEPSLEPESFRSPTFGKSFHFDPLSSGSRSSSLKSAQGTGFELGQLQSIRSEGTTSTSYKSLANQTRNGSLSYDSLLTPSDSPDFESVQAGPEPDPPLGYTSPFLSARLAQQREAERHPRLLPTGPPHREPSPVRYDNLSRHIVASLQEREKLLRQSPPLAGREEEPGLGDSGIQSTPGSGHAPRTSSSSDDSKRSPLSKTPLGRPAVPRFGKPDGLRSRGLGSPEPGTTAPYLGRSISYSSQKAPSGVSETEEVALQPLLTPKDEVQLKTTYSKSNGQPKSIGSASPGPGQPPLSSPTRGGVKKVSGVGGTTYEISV
HA-Zdhhc5^ANYA (mouse Zdhhc5 double mutant) (Q8VDZ4, form named): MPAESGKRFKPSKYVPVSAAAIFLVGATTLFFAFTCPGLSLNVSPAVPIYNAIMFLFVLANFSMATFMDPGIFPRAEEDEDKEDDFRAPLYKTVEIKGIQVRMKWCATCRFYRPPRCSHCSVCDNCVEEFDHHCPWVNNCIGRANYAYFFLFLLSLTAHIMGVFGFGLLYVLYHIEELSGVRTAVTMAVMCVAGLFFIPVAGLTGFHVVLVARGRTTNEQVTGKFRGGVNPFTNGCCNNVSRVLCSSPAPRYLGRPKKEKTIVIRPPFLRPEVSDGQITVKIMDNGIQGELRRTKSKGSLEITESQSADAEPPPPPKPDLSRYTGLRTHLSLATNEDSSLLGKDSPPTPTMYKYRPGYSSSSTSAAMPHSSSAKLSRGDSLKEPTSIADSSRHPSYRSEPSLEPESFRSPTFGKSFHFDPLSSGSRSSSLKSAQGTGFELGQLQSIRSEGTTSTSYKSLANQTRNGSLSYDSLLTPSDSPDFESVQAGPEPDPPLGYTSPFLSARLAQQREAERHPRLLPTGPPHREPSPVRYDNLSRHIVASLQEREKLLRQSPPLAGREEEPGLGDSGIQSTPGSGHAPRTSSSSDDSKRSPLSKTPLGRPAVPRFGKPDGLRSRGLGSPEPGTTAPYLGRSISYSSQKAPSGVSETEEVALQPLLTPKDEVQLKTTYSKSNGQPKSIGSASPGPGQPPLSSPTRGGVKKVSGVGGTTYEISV
HA-Zdhhc5^ANYR (mouse Zdhhc5 Arg144Ala) (Q8VDZ4, form named): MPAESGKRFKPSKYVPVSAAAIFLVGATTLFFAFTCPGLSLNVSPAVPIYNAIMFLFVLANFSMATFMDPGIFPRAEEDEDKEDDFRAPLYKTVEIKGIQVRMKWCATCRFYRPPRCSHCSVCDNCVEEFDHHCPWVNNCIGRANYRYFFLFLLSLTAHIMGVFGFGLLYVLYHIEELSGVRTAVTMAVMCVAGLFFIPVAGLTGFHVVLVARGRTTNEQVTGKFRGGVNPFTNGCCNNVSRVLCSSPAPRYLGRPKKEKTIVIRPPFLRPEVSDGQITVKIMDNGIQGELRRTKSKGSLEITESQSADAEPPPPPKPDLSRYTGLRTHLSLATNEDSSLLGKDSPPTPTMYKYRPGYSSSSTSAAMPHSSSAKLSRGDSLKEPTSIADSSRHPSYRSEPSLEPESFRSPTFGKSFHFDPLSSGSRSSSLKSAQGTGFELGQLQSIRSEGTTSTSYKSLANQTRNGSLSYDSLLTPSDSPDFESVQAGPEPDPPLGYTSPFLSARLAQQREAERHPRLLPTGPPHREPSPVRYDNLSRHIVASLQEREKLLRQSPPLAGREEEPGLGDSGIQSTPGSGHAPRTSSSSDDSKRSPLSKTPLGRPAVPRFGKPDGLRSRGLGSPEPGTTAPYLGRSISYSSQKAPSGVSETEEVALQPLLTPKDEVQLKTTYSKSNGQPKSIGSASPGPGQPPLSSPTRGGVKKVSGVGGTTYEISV
HA-Zdhhc5^ΔC-term (mouse Zdhhc5 lacking the C terminus) (Q8VDZ4, form named): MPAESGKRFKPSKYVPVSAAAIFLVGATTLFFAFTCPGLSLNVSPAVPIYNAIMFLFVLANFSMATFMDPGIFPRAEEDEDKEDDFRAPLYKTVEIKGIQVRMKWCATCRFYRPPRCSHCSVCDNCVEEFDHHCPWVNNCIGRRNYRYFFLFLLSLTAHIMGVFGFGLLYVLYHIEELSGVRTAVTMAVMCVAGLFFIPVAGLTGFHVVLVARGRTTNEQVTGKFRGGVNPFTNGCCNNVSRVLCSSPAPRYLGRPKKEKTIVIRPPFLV
HA-Zdhhc5^ΔDHHC (mouse Zdhhc5 lacking the cytosolic loop with the DHHC active site and cysteine rich domain) (Q8VDZ4, form named): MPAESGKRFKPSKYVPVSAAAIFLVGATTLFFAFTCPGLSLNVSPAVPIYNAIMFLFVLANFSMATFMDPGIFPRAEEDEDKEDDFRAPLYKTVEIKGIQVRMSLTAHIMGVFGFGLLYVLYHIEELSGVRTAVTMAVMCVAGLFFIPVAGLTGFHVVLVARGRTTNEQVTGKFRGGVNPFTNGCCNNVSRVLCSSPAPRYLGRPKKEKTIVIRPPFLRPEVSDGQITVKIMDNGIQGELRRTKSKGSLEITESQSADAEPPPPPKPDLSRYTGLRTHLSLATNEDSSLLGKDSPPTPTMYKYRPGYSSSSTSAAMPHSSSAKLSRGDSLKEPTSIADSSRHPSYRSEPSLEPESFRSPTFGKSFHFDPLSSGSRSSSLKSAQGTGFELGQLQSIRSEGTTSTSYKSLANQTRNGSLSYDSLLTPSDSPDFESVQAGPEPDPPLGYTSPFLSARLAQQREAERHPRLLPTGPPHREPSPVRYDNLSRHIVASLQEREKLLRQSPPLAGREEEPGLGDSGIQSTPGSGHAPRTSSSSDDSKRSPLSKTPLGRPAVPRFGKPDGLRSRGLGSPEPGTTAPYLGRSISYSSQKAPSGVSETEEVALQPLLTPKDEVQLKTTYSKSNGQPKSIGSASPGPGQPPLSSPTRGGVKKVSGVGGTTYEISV
UniProt P59267: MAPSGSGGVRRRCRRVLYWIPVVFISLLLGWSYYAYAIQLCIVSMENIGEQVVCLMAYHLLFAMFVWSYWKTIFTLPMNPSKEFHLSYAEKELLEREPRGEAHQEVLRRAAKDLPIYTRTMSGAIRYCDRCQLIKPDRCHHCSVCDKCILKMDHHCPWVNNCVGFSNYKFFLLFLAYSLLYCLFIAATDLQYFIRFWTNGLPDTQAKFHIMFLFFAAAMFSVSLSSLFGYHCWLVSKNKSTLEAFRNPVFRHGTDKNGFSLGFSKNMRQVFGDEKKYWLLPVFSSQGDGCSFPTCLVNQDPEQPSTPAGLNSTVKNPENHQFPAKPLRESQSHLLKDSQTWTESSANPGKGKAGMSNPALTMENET
UniProt Q7Z5G4: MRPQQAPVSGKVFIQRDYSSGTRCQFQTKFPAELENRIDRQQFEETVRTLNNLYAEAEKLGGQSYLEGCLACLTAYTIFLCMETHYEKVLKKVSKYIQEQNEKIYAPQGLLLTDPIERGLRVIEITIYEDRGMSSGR

[8] = target: T2, HA-tagged mouse Zdhhc6 (mouse) (UniProt Q9CPV7)
T2 sequence: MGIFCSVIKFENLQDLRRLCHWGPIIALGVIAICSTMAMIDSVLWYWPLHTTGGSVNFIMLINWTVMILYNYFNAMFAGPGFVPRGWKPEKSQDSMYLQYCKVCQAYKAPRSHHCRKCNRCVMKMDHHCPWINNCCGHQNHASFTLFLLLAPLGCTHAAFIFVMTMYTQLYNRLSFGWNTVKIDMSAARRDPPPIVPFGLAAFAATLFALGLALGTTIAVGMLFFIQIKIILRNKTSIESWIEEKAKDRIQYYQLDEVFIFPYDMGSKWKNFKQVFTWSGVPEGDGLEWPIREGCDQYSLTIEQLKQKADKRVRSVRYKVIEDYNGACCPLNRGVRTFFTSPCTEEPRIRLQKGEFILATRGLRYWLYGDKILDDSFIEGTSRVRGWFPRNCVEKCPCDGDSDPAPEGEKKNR

[9] = target: T3, Zdhhc4^RNYR (mouse Zdhhc4 with the RNYR motif and flanking residues installed) (mouse) (UniProt Q9D6H5)
T3 sequence: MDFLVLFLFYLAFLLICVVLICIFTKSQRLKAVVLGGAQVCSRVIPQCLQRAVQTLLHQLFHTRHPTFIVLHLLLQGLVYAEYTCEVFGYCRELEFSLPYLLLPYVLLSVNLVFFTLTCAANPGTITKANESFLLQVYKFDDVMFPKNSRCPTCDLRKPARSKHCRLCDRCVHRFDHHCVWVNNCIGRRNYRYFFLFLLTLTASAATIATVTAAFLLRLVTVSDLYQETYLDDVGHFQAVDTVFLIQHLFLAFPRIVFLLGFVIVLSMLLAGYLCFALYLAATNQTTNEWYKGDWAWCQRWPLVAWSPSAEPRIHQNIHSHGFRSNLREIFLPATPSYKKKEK

- binding [1]: no binding
- binding [2]: no binding
- binding [3]: binds
- binding [4]: binds
- binding [5]: no binding
- binding [6]: no binding
- binding [7]: no binding
- binding [8]: no binding
- binding [9]: no binding
Substance: endogenous human golgin A7 (GOLGA7) (from UniProt Q7Z5G4 1-137)
